These results are taken from paper PMC4336329 (PLoS ONE, 2015).

Screen size: about 310,000 compounds; about 14,000 (4.5%) showed an effect of 50% or more. Effects have a minus sign here. The list shows a part of the results.
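Also: peak tail current of the secondary pulse compared with the same well before compound.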

This experiment deals with human ether-à-go-go-related gene (hERG) potassium channel (human, UniProt Q12809). As to the kind of experiment: primary screen, population patch clamp on CHO cells stably expressing hERG.
Sequence of human ether-à-go-go-related gene (hERG) potassium channel (Q12809 whole entry, looked up): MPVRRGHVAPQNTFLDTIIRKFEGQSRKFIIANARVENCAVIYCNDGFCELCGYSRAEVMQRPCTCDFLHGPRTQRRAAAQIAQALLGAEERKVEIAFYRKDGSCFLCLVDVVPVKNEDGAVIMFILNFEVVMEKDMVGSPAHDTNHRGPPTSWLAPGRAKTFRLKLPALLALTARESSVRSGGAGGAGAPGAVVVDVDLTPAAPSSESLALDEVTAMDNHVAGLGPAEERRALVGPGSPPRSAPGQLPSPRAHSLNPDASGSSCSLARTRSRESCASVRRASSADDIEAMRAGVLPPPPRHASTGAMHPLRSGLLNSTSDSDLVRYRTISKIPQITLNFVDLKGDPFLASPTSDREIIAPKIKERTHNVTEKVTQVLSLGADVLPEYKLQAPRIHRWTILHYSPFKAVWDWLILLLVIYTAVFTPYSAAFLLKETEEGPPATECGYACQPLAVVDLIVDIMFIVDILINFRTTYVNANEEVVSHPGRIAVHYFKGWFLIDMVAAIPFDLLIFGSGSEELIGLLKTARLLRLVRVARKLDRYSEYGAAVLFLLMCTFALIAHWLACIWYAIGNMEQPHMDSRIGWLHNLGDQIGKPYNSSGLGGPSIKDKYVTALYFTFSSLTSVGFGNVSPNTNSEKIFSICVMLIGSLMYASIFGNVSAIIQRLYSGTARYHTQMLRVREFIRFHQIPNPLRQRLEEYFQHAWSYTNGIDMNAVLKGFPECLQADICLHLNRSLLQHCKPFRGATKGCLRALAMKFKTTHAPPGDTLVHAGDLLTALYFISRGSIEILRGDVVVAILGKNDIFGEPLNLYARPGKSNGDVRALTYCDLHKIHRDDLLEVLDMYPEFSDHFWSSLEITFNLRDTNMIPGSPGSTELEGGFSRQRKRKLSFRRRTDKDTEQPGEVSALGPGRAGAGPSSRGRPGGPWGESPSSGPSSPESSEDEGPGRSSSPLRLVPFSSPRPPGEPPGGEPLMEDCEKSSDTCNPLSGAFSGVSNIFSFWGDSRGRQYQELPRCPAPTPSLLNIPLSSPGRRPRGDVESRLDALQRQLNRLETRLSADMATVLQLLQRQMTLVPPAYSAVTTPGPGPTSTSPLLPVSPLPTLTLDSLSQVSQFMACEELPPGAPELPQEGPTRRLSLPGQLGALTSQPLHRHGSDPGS
For `CCN(C(=O)COC(=O)Cc1c(F)cccc1Cl)c1c(N)n(Cc2ccccc2)c(=O)[nH]c1=O`, the “hERG current change (%, negative = inhibition) at 10uM” value is 11.3%.
With `CCn1c(SCC(=O)Nc2ccccc2)nnc1-c1cccs1`, the “hERG current change (%, negative = inhibition) at 10uM” value is -70.8%.
The value for `COc1ccc(NC(=O)CC2Oc3ccccc3NC2=O)cc1` (stereo not shown) was 9.76%; that for `CCOP(=O)(O)c1ccccc1OCCOc1ccccc1P(=O)(O)OCC` was 9.14%; that for `CC(C)Cn1c(=O)c(C(=O)Nc2ccncc2)c(O)c2ccccc21` was -6.19%.
The value for `COc1ccc(NS(=O)(=O)c2cc(NC(=O)c3ccc(F)cc3)ccc2OC)cc1` was 6.37%.
The value for `C/C(=N\NC(=O)CSc1nc2ccccc2s1)c1cccnc1` was -7.25%.
For the compound `COc1ccc(Cc2nnc(SCC(=O)Nc3ncc(C)s3)o2)cc1`, the “hERG current change (%, negative = inhibition) at 10uM” value is recorded as -8.49%.
The value for `COC(=O)c1ccc(CSc2nccn2C)cc1` was -5.16%.
Take `CCOc1ccc2c(=O)c(-c3ccc4c(c3)OCCCO4)c(C)oc2c1`: the “hERG current change (%, negative = inhibition) at 10uM” value is given as 1.73%.
With `CCOc1cc(/C=N/n2cnnc2)ccc1O` the figure was 7.61%.
The value for `CCOC(=O)c1cc(-c2ccccc2)n(CCC(=O)N2CCN(c3ccccn3)CC2)c1C` was -40.5%; that for `Cc1ccc2[nH]c(=O)c(C(c3nnnn3C3CCCC3)N(Cc3cccnc3)Cc3ccco3)cc2c1` (stereo not shown) was -5.71%.
The value for `O=C(Cc1ccccc1)Nc1ccccc1N1CCOCC1` was -6.81%.
For `O=C(Cn1cc(S(=O)(=O)Cc2ccccc2F)c2ccccc21)N1CCOCC1`, the “hERG current change (%, negative = inhibition) at 10uM” value is reported as -4.32%.
With `Cc1c(CN2CCC(n3nccc3NC(=O)C3CC3)CC2)[nH]c2ccccc12` the figure was -61%; with `CCOC(=O)c1cnc(-n2nc(C)cc2C)nc1NC(C)c1ccccc1` (stereo not shown), 3.15%.
Regarding `COc1ccc(C(C)=O)cc1CSc1nc2ccccc2c(=O)n1-c1ccccc1C`, the “hERG current change (%, negative = inhibition) at 10uM” value is listed as 12.2%.
With `Cc1c(C(c2ccc(O)cc2)c2c(O)c3ccccc3oc2=O)c(=O)n(-c2ccccc2)n1C` (stereo not shown) the figure was 7.46%; with `O=C1c2cccc(OCC(=O)N3CCCc4ccccc43)c2CCN1Cc1ccc(F)cc1`, -34%.
Regarding `N#CCCn1cc(C(=O)O)c(-c2ccc3ccccc3c2)n1`, the “hERG current change (%, negative = inhibition) at 10uM” value is recorded as 16%.
The value for `CC(=O)c1c(C)[nH]c(C(=O)CSc2nc3ccccc3c(=O)n2CCCN2CCOCC2)c1C` was -15.5%; that for `COC(=O)[C@H](CC(C)C)NC(=O)Nc1ccccc1F` was 16.6%; that for `CSc1nc(N)c(C#N)c(-c2ccccc2Cl)c1C#N` was 11.9%.
With `CC(=O)Nc1nnc(SCC(=O)c2ccc(F)cc2)s1` the figure was -3.12%; with `O=C(NCC(=O)N1CCN(S(=O)(=O)c2ccccc2F)CC1)c1ccc(Br)o1`, -15.5%; with `Cc1c(C(=O)N2CCN(C)CC2)oc2ccc(Br)cc12`, -20%.
With `COC(=O)c1sccc1NC(=O)c1ccc(C#N)cc1` the figure was 7.91%.
Take `COc1cc(/C=N/NC(=O)c2cc(-c3c(C)nn(-c4ccccc4)c3C)n[nH]2)ccc1O`: the “hERG current change (%, negative = inhibition) at 10uM” value amounted to 1.36%.
The value for `O=C(CCS(=O)NCc1ccccc1)NCc1ccccc1` (stereo not shown) was 17.1%; that for `CCc1ccc(NC(=O)C(=S)NC2CCCCC2)cc1` was 26.8%.
With `COc1ccccc1CNC(=O)[C@H](Cc1c[nH]c2ccccc12)NC(=O)[C@@H]1Cc2ccccc2CN1` the figure was -16.5%; with `CCCC(C)C(=O)Nc1ncc(S(=O)(=O)c2ccc([N+](=O)[O-])cc2)s1` (stereo not shown), -0.952%.
The value for `CC(C)=CCN1CCN(Cc2nc(-c3ccc(F)cc3)cs2)CC1CCO` (stereo not shown) was -69%; that for `Cn1c(N2CCC(C(N)=O)CC2)nc2c1c(=O)n(Cc1cccc(Br)c1)c(=O)n2C` was -64.7%; that for `O=C(NCc1cccnc1)c1cccc(F)c1` was 17.9%.
For `O=C(Cn1ccc2ccccc2c1=O)NCCC(=O)N1CCCCC1`, the “hERG current change (%, negative = inhibition) at 10uM” value is listed as 2.91%.
With `CCCCC(=Nc1ccc(N)cc1)C1=C(O)C(C(=O)OC)C(C)(C)CC1=O` (stereo not shown) the figure was -1.62%; with `Cc1ccc(CNC(=O)CCS(=O)(=O)c2cc3c(cc2C)NC(=O)CO3)cc1`, -38.5%; with `Cc1ccc(-c2ccc(/C=N/NC(=O)c3ccccc3O)o2)cc1`, 17.6%.
`Cc1ccnc(NC(=O)Cn2cc([N+](=O)[O-])cn2)c1`: the “hERG current change (%, negative = inhibition) at 10uM” value was found to be 0.372%.
The value for `Cc1ccc(C(=O)Nc2cccc(C(F)(F)F)c2)cc1NC(=O)c1csc(-c2ccncc2)n1` was -62.5%; that for `Cc1ccc(O)c(CNc2nccs2)c1` was 6.55%.
As to `COCCN1Cc2cccc(C(=O)Nc3ccc(S(=O)(=O)N4CCCCCC4)cc3)c2C1=O`, the “hERG current change (%, negative = inhibition) at 10uM” value was determined as 19.8%.
The value for `Cn1cccc1CC(=O)NNC(=O)Nc1cccc(Cl)c1` was 18.9%; that for `CN1Cc2sc(NC(=S)NC(=O)c3ccccc3)c(C#N)c2CC1(C)C` was -49.7%.
